Reference: the supplement of paper PMC8728848
The other results are listed elsewhere or left out.

How the values were obtained:
Assay in all cases: glycan array binding signal (z-score within array); higher = stronger binding
Conditions in all cases: glycan notation: IUPAC condensed, linker removed
[1] = molecular target: GlcNAc(b1-4)GlcNAc(b1-4)GlcNAc
In short: (§1)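 Columns mapping to the same glycan were averaged after glycan names were converted to IUPAC-condensed notation. The data come from 3228 arrays in the Consortium for Functional Glycomics database, limited to those with an available protein sequence. Binding is reported as a within-array Z-score averaged across arrays of one protein sequence and across linkers.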

[2] = molecular target: GlcNAc(b1-4)GlcNAc(b1-4)GlcNAc(b1-4)GlcNAc(b1-4)GlcNAc
In short: as §1

[3] = molecular target: GlcNAc(b1-4)GlcNAc(b1-4)GlcNAc(b1-4)GlcNAc(b1-4)GlcNAc(b1-4)GlcNAc
In short: as §1

[4] = molecular target: GlcNAc(b1-4)[GlcNAc(b1-6)]GalNAc
In short: as §1

[5] = molecular target: GlcNAc(b1-6)Gal(b1-4)GlcNAc
In short: as §1

[6] = molecular target: GlcNAc(b1-6)GalNAc
In short: as §1

[7] = molecular target: GlcNAc3Prop(b1-4)GlcNAc
In short: as §1

[8] = molecular target: GlcNAc6S(b1-3)Gal(b1-4)GlcNAc
In short: as §1

[9] = molecular target: Kdn(a2-3)Gal(b1-3)GalNAc
In short: as §1

[10] = molecular target: Kdn(a2-3)Gal(b1-3)GlcNAc
In short: as §1

[11] = molecular target: Kdn(a2-3)Gal(b1-4)Glc
In short: as §1

[12] = molecular target: Kdn(a2-3)Gal(b1-4)GlcNAc
In short: as §1

[13] = molecular target: Kdn(a2-3)Gal(b1-4)[Fuc(a1-3)]GlcNAc
In short: as §1

[14] = molecular target: Kdn(a2-6)Gal(b1-4)GlcNAc
In short: as §1

[15] = molecular target: Man(a1-2)Man(a1-2)Man(a1-3)Man
In short: as §1

[16] = molecular target: Man(a1-2)Man(a1-2)Man(a1-6)[Man(a1-3)]Man
In short: as §1

[17] = molecular target: Man(a1-2)Man(a1-3)Man
In short: as §1

[18] = molecular target: Man(a1-2)Man(a1-3)[Man(a1-2)Man(a1-6)]Man
In short: as §1

[19] = molecular target: Man(a1-2)Man(a1-3)[Man(a1-2)Man(a1-6)]Man(a1-6)[Man(a1-2)Man(a1-2)Man(a1-3)]Man
In short: as §1

[20] = molecular target: Man(a1-2)Man(a1-3)[Man(a1-2)Man(a1-6)]Man(a1-6)[Man(a1-2)Man(a1-2)Man(a1-3)]Man(b1-4)GlcNAc(b1-4)GlcNAc
In short: as §1

[21] = molecular target: Man(a1-2)Man(a1-3)[Man(a1-6)]Man(a1-6)[Man(a1-2)Man(a1-3)]Man(b1-4)GlcNAc(b1-4)GlcNAc
In short: as §1

[22] = molecular target: Man(a1-2)Man(a1-6)[Man(a1-3)]Man(a1-6)[Man(a1-2)Man(a1-2)Man(a1-3)]Man
In short: as §1

[23] = molecular target: Man(a1-2)Man(a1-6)[Man(a1-3)]Man(a1-6)[Man(a1-2)Man(a1-2)Man(a1-3)]Man(b1-4)GlcNAc(b1-4)GlcNAc
In short: as §1

[24] = molecular target: Man(a1-3)[Man(a1-6)]Man
In short: as §1

[25] = molecular target: Man(a1-3)[Man(a1-6)]Man(a1-6)[Man(a1-2)Man(a1-3)]Man(b1-4)GlcNAc(b1-4)GlcNAc
In short: as §1

[26] = molecular target: Man(a1-3)[Man(a1-6)]Man(a1-6)[Man(a1-3)]Man
In short: as §1

[27] = molecular target: Man(a1-3)[Man(a1-6)]Man(a1-6)[Man(a1-3)]Man(b1-4)GlcNAc(b1-4)GlcNAc
In short: as §1

[28] = molecular target: Man(a1-3)[Man(a1-6)]Man(b1-4)GlcNAc(b1-4)GlcNAc
In short: as §1

[29] = molecular target: Man(a1-6)Man
In short: as §1

[30] = molecular target: Man(b1-4)GlcNAc
In short: as §1

[31] = molecular target: Neu5Ac(a2-3)Gal
In short: as §1

[32] = molecular target: Neu5Ac(a2-3)Gal(b1-3)GalNAc
In short: as §1

[33] = molecular target: Neu5Ac(a2-3)Gal(b1-3)GalNAc(b1-3)Gal(a1-4)Gal(b1-4)Glc
In short: as §1

[34] = molecular target: Neu5Ac(a2-3)Gal(b1-3)GalNAc(b1-3)Gal(b1-4)GlcNAc
In short: as §1

[35] = molecular target: Neu5Ac(a2-3)Gal(b1-3)GalNAc(b1-4)[Neu5Ac(a2-3)]Gal(b1-4)Glc
In short: as §1

[36] = molecular target: Neu5Ac(a2-3)Gal(b1-3)GalNAc6S
In short: as §1

[37] = molecular target: Neu5Ac(a2-3)Gal(b1-3)GlcNAc
In short: as §1

[38] = molecular target: Neu5Ac(a2-3)Gal(b1-3)GlcNAc(b1-3)Gal(b1-3)GlcNAc
In short: as §1

[39] = molecular target: Neu5Ac(a2-3)Gal(b1-3)GlcNAc6S
In short: as §1

[40] = molecular target: Neu5Ac(a2-3)Gal(b1-3)[Fuc(a1-4)]GlcNAc
In short: as §1

[41] = molecular target: Neu5Ac(a2-3)Gal(b1-3)[Fuc(a1-4)]GlcNAc(b1-3)Gal(b1-3)[Fuc(a1-4)]GlcNAc
In short: as §1

[42] = molecular target: Neu5Ac(a2-3)Gal(b1-3)[Fuc(a1-4)]GlcNAc(b1-3)Gal(b1-4)[Fuc(a1-3)]GlcNAc
In short: as §1

[43] = molecular target: Neu5Ac(a2-3)Gal(b1-3)[Neu5Ac(a2-3)Gal(b1-4)]GlcNAc
In short: as §1

[44] = molecular target: Neu5Ac(a2-3)Gal(b1-3)[Neu5Ac(a2-6)]GalNAc
In short: as §1

[45] = molecular target: Neu5Ac(a2-3)Gal(b1-4)Glc
In short: as §1

[46] = molecular target: Neu5Ac(a2-3)Gal(b1-4)GlcNAc
In short: as §1

[47] = molecular target: Neu5Ac(a2-3)Gal(b1-4)GlcNAc(b1-2)Man(a1-3)[GlcNAc(b1-2)Man(b1-4)GlcNAc(b1-2)Man(a1-6)]Man(b1-4)GlcNAc(b1-4)GlcNAc
In short: as §1

[48] = molecular target: Neu5Ac(a2-3)Gal(b1-4)GlcNAc(b1-2)Man(a1-3)[Neu5Ac(a2-6)Gal(b1-4)GlcNAc(b1-2)Man(a1-6)]Man(b1-4)GlcNAc(b1-4)GlcNAc
In short: as §1

[49] = molecular target: Neu5Ac(a2-3)Gal(b1-4)GlcNAc(b1-3)Gal(b1-3)GlcNAc
In short: as §1

[50] = molecular target: Neu5Ac(a2-3)Gal(b1-4)GlcNAc(b1-3)Gal(b1-4)GlcNAc
In short: as §1

[51] = molecular target: Neu5Ac(a2-3)Gal(b1-4)GlcNAc(b1-3)Gal(b1-4)GlcNAc(b1-3)Gal(b1-4)GlcNAc
In short: as §1

[52] = molecular target: Neu5Ac(a2-3)Gal(b1-4)GlcNAc(b1-3)Gal(b1-4)[Fuc(a1-3)]GlcNAc
In short: as §1

[53] = molecular target: Neu5Ac(a2-3)Gal(b1-4)GlcNAc(b1-3)GalNAc
In short: as §1

[54] = molecular target: Neu5Ac(a2-3)Gal(b1-4)GlcNAc(b1-6)[Gal(b1-3)]GalNAc
In short: as §1

[55] = molecular target: Neu5Ac(a2-3)Gal(b1-4)GlcNAc(b1-6)[Neu5Ac(a2-3)Gal(b1-3)]GalNAc
In short: as §1

[56] = molecular target: Neu5Ac(a2-3)Gal(b1-4)GlcNAc6S
In short: as §1

[57] = molecular target: Neu5Ac(a2-3)Gal(b1-4)[Fuc(a1-3)]GlcNAc
In short: as §1

[58] = molecular target: Neu5Ac(a2-3)Gal(b1-4)[Fuc(a1-3)]GlcNAc(b1-3)Gal
In short: as §1

[59] = molecular target: Neu5Ac(a2-3)Gal(b1-4)[Fuc(a1-3)]GlcNAc(b1-3)Gal(b1-4)GlcNAc
In short: as §1

[60] = molecular target: Neu5Ac(a2-3)Gal(b1-4)[Fuc(a1-3)]GlcNAc(b1-3)Gal(b1-4)[Fuc(a1-3)]GlcNAc(b1-3)Gal(b1-4)[Fuc(a1-3)]GlcNAc
In short: as §1

B1: DETC sTCR (Mus musculus) (protein)
chain: LDVYLEPVAKTFTVVAGDPASFYCTVTGGDMKNYHMSWYKKNGTNALFLVYKLNSNSTDGGKSNLKGKINISKNQFILDIQKATMKDAGTYYCGSDIGGSSWDTRQMFFGTGIELFVEPKSQPPAKPSVFIMKNGTNVACLVKDFYPKEVTISLRSSKKIVEFDPAIVISPSGKYSAVKLGQYGDSNSVTCSVQHNSETVHSTDFEPYANSFNNEKLPEPENDTQISEPCSSADLVPRGSTTAPSAQLKKKLQALKKKNAQLKWKLQALKKKLAQHHHHHHDSWISQDQLSFTRRPNKTVHISCKLSGVPLHNTIVHWYQLKEGEPLRRIFYGSVKTYKQDKSHSRLEIDEKDDGTFYLIINNVVTSDEATYYCACWDSSGFHKVFAEGTKLIVIPSDKRLDADISPKPTIFLPSVAETNLHKTGTYLCLLEKFFPDVIRVYWKEKDGNTILDSQEGDTLKTNDTYMKFSWLTVPERAMGKEHRCIVKHENNKGGADQEIFFPSIKKVAVSTKPTTCSSADLVPRGSTTAPSAQLEKELQALEKENAQLEWELQALEKELAQLNDIFEAQKIEW
glycan array binding signal (z-score) [1]: -0.563
glycan array binding signal (z-score) [2]: 0.231
glycan array binding signal (z-score) [3]: 0.14
glycan array binding signal (z-score) [4]: -0.619
glycan array binding signal (z-score) [5]: -0.264
glycan array binding signal (z-score) [6]: 0.306
glycan array binding signal (z-score) [7]: -0.24
glycan array binding signal (z-score) [8]: 0.667
glycan array binding signal (z-score) [9]: -0.484
glycan array binding signal (z-score) [10]: -0.409
glycan array binding signal (z-score) [11]: -0.637
glycan array binding signal (z-score) [12]: -0.276
glycan array binding signal (z-score) [13]: -0.864
glycan array binding signal (z-score) [14]: -0.381
glycan array binding signal (z-score) [15]: -0.561
glycan array binding signal (z-score) [16]: 0.993
glycan array binding signal (z-score) [17]: -0.043
glycan array binding signal (z-score) [18]: 2.29
glycan array binding signal (z-score) [19]: -0.534
glycan array binding signal (z-score) [20]: -0.22
glycan array binding signal (z-score) [21]: 0.382
glycan array binding signal (z-score) [22]: -0.197
glycan array binding signal (z-score) [23]: -0.373
glycan array binding signal (z-score) [24]: 0.885
glycan array binding signal (z-score) [25]: -0.581
glycan array binding signal (z-score) [26]: 0.347
glycan array binding signal (z-score) [27]: -0.543
glycan array binding signal (z-score) [28]: -0.526
glycan array binding signal (z-score) [29]: -0.626
glycan array binding signal (z-score) [30]: 0.636
glycan array binding signal (z-score) [31]: -0.674
glycan array binding signal (z-score) [32]: 1.65
glycan array binding signal (z-score) [33]: -0.384
glycan array binding signal (z-score) [34]: -0.515
glycan array binding signal (z-score) [35]: 0.102
glycan array binding signal (z-score) [36]: 1.09
glycan array binding signal (z-score) [37]: 1.16
glycan array binding signal (z-score) [38]: 0.815
glycan array binding signal (z-score) [39]: -0.644
glycan array binding signal (z-score) [40]: -0.698
glycan array binding signal (z-score) [41]: -0.1
glycan array binding signal (z-score) [42]: -0.613
glycan array binding signal (z-score) [43]: -0.657
glycan array binding signal (z-score) [44]: 0.424
glycan array binding signal (z-score) [45]: -0.588
glycan array binding signal (z-score) [46]: -0.121
glycan array binding signal (z-score) [47]: -0.044
glycan array binding signal (z-score) [48]: -0.39
glycan array binding signal (z-score) [49]: 0.859
glycan array binding signal (z-score) [50]: -0.662
glycan array binding signal (z-score) [51]: -0.518
glycan array binding signal (z-score) [52]: -0.36
glycan array binding signal (z-score) [53]: -0.126
glycan array binding signal (z-score) [54]: 0.168
glycan array binding signal (z-score) [55]: 0.244
glycan array binding signal (z-score) [56]: -0.639
glycan array binding signal (z-score) [57]: -0.251
glycan array binding signal (z-score) [58]: 0.467
glycan array binding signal (z-score) [59]: -0.596
glycan array binding signal (z-score) [60]: -0.556
